Laboratory results taken from paper PMC7284315.
Residue numbers refer to the chain shown, from its start. These are yes or no findings as the source states them, for the method shown. In cells and extracts the contact can be indirect. Some results given as binding are weak or reduced against the parent protein; the word gives no strength. Where a sequence is shown, tags or fusion partners need not be part of it.

The chains behind the UniProt entries cited, without tags or fusion partners.
UniProt P49674: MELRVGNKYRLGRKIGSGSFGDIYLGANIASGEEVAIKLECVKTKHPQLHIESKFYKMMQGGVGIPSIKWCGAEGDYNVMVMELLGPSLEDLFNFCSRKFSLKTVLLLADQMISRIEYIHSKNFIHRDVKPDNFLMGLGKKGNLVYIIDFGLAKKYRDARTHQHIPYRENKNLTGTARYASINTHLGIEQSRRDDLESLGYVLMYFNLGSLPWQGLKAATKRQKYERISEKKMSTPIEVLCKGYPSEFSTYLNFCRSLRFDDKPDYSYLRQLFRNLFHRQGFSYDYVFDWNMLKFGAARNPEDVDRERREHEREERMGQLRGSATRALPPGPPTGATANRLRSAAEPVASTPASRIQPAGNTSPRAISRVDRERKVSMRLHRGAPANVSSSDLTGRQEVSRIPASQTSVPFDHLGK

Legend:
Experiment in all cases: co-IP; anti-FLAG agarose IP from lysates of U2OS FAM83H-/- cells transiently transfected with FLAG-FAM83H constructs, 1 h at 4 °C (16 h in Fig. 6C); immunoblot of endogenous preys
[1] = target: T1, FLAG-FAM83H^D236A (human) (UniProt Q6ZRV2)
T1 sequence: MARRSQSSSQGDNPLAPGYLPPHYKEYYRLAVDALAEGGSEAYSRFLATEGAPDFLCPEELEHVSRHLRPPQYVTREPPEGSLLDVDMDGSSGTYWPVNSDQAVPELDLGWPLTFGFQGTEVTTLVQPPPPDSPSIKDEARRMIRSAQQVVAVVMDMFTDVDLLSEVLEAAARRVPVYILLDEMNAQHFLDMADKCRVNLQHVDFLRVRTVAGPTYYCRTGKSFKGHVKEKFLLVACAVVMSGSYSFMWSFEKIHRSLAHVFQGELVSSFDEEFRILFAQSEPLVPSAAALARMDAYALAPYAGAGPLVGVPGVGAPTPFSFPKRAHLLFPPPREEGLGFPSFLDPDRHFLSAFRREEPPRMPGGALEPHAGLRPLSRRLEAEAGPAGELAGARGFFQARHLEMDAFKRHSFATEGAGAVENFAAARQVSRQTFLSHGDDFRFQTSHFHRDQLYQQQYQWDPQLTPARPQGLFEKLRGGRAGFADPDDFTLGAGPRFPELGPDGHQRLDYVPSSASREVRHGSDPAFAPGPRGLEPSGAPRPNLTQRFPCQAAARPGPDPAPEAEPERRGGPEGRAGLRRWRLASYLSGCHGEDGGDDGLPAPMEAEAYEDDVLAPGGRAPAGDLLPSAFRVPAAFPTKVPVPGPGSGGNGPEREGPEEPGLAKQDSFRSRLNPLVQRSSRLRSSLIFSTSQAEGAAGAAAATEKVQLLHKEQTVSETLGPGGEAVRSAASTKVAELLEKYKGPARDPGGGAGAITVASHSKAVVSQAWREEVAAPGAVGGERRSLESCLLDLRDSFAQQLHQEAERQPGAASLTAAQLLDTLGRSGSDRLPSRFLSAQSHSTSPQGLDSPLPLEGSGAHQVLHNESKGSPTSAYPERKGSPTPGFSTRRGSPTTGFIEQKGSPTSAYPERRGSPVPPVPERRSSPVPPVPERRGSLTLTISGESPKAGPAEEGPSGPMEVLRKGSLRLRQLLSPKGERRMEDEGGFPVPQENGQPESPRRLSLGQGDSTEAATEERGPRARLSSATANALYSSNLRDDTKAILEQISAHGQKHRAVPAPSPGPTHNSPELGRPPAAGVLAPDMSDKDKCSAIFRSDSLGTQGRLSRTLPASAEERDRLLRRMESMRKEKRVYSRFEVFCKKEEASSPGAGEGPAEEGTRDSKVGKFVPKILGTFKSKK

[2] = target: T2, FLAG-FAM83H^Q452X (human) (UniProt Q6ZRV2)
T2 sequence: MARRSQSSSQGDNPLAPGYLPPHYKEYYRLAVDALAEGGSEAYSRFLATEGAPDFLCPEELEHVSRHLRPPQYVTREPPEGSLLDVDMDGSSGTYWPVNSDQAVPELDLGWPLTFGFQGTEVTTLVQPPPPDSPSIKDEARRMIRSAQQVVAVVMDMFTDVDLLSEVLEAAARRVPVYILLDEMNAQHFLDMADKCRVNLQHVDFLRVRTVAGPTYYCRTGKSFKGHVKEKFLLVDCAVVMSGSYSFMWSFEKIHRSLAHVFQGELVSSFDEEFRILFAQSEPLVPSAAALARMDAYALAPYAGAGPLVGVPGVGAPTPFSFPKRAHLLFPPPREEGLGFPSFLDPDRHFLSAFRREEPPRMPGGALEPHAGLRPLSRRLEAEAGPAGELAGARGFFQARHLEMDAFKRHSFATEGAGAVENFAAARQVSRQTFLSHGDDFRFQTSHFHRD

[3] = target: T3, FLAG-FAM83H^WT (U2OS FAM83H-/-) (human) (UniProt Q6ZRV2)
T3 sequence: T1 sequence with A236D

“protein kinase CK1 isoform ε (CK1ε), endogenous (from UniProt P49674 1-416) (enzyme)” was tested, and the binding [1] was “no binding”, the binding [2] was “binds” and the binding [3] was “binds”.
